Experimental data: ChEMBL document CHEMBL4888484, “Replenishing the malaria drug discovery pipeline: Screening and hit evaluation of the MMV Hit Generation Library 1 (HGL1) against asexual blood stage Plasmodium falciparum ,using a nano luciferase reporter read-out” (2022)
Hit rate of the full screen: of about 150,000 compounds, about 540 (0.36%) showed an effect of 50% or more. Some of the results follow.

Test system: Plasmodium falciparum
Assay: Primary screen in NF54 nanoGlo assay, in single point, at 2uM, 72h; a lower Z score goes with more inhibition
Type: functional, Erythrocyte
Conditions: timepoint 72 hour

Structure (SMILES)	% Inhibition	Z score
C[C@@H](Cc1ccc2c(c1)CCO2)NC(=O)C1CCN(S(C)(=O)=O)CC1	0%	-0.07
Cc1sc(-c2ccccc2F)nc1C(=O)NCCc1cnc[nH]1	2%	-0.34
Cc1cc(Br)cc2c1CN(CC(=O)N1CCNC(=O)C1)CC2	-10%	1.73
COC(=O)c1ncn2c1CO[C@H](c1ccc(F)cc1)C2	-1%	0.07
CCC[C@H](NC(=O)c1cc[nH]c1C)C(=O)N1CCc2sccc2C1	-2%	0.22
CN(C)c1noc(CN[C@@H]2COCCN(C(=O)OC(C)(C)C)C2)n1	2%	-0.44
CCCN1C(=O)Cc2c(C)nc(-c3cccc(Cl)c3)nc21	-2%	0.31
O=C(Nc1ccc(NC(=O)C(F)(Cl)C(F)(F)F)cc1)C(F)(Cl)C(F)(F)F (configuration not stated)	1%	-0.09
OCCOc1cccc(-c2nccn2-c2ccc(-n3cccn3)cc2)c1	-7%	1
Cc1nnc(N2CCN(C(=O)[C@@H]3CCCO3)CC2)c(C#N)c1C	-8%	0.73
O=C(Nc1ccccc1C(F)(F)F)N[C@H]1CCCS(=O)(=O)C1	-8%	1.53
O=C(c1cc(S(=O)(=O)N2CCC[C@H](C(=O)N3CCCC3)C2)c[nH]1)N1CCCCCC1	-3%	0.65
Cc1cccc2c1C(=O)NCCN2C(=O)C1CC1c1ccc2ccccc2c1 (configuration not stated)	-8%	1.09
CCCn1nc(C)cc1NC(=O)[C@@H]1CC=CCC1	-8%	0.78
COCCN1CC(=O)N[C@H]2CN(S(=O)(=O)N3CCCC3)C[C@@H]2OCc2cccc(c2)Oc2cc(ccc2OC)CCC1=O	-4%	0.68
COc1ccc2c(c1)C(C(=O)Nc1ccccc1C(O)c1ccccn1)CCC2 (configuration not stated)	-1%	0.14
O=C1OCCCN1c1ccc(-c2noc(CC3CCOCC3)n2)cc1	-23%	2.96
O=C1NCCCCC1Oc1ccc(OC(=O)C2C3CCCCC32)cc1 (configuration not stated)	30%	-3.34
Cc1cccc(-c2noc(N3CCOCC3)c2CN(CCN(C)C)C(=O)c2ccco2)c1	11%	-1.51
CC(C)c1nccc(C(=O)N2CCC[C@H](c3[nH]ncc3-c3ccccc3)C2)n1	1%	-0.19
CCC1(CNC(=O)Nc2ccc(Oc3ccc(C)nn3)cc2)CC1	-7%	0.65

Structure (SMILES)	% Inhibition	Z score
COc1ccc(CN(C(=O)c2c(C)noc2C)C2CC2)c(OC)c1	-26%	3.81
CC(C)n1ccc(C(=O)Nc2ccc(C(=O)N3CCCC[C@@H]3C)cc2)n1	6%	-0.87
Cc1ccc(CNC(=O)N2CC[C@](O)(C3CC3)[C@@H](C)C2)cc1	0%	-0.06
CCN(Cc1cncn1CCOC)C[C@H]1CCCO1	2%	-0.39
COc1ncc(Cl)c(N2CCN([C@H]3CCS(=O)(=O)C3)CC2)n1	-5%	0.82
COc1ccc(S(=O)(=O)N2C[C@H](C)Oc3c(F)cccc32)cn1	-11%	1.25
CC(C)n1nccc1S(=O)(=O)N[C@@H](C)c1cccnc1	4%	-0.44
COCC(=O)N1CCC[C@H](c2nc(C)nn2CCO)C1	16%	-2.07
CC(C)c1nccn1CC(=O)NC(C1CC1)C1CC1	1%	-0.12
Cc1noc(C)c1C(=O)Cn1ccnc1C(C)C	-7%	0.57
CC(=O)N1CCc2sc(S(=O)(=O)NCc3ccc(C)c(C)c3)cc2C1	9%	-1.71
CCOc1ccccc1C(=O)NCc1nc2cccnc2n1C	-18%	2.64
CC1CCCC(CC(=O)NC2CCCNC2=O)C1 (configuration not stated)	-2%	0.29
C[C@H](Oc1ccccc1)C(=O)N1CC(Cn2cncn2)C1	-11%	1.43
COCc1cc(N2C[C@H]3CC[C@@H](C2)N(Cc2cscn2)C3=O)ncn1	-15%	2.91
CN(Cc1cn2ccccc2n1)c1ccn(C)n1	-1%	0.14
COc1nc(NC(C)=O)nc(C)c1Cl	32%	-3.67
Cc1ncc2n1CC[C@H](C(=O)Nc1cnn(C3CCCC3)c1)C2	-13%	1.69
Fc1ccc(C2CC(c3ccc4c(c3)OCO4)Nc3ncnn32)cc1 (configuration not stated)	34%	-3.82
CCCCN(C)CC1CCN(C(=O)Nc2nnc(C)s2)CC1	13%	-1.06
